Consider six molecules from PMC4928087.

Amino acid sequences for entries named in this document (tags omitted). A change or cut given only in a name is not applied to a line headed by its entry.
UniProt Q39204: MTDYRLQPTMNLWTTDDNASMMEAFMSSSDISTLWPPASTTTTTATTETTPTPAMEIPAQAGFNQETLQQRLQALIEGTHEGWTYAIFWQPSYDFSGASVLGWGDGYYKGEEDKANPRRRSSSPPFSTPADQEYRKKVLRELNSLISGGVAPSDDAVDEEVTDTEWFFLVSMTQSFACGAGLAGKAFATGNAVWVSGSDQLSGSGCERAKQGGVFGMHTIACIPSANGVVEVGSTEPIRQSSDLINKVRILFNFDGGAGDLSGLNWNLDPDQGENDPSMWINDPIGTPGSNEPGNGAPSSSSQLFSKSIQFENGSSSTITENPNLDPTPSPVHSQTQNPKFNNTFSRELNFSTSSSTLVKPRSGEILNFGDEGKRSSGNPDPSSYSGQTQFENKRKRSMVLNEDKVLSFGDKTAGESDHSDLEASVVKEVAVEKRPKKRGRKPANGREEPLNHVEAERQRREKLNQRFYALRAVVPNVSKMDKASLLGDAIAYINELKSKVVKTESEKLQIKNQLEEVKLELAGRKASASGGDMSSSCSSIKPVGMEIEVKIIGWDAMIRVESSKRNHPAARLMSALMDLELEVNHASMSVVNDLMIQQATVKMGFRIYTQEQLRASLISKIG
UniProt P49597: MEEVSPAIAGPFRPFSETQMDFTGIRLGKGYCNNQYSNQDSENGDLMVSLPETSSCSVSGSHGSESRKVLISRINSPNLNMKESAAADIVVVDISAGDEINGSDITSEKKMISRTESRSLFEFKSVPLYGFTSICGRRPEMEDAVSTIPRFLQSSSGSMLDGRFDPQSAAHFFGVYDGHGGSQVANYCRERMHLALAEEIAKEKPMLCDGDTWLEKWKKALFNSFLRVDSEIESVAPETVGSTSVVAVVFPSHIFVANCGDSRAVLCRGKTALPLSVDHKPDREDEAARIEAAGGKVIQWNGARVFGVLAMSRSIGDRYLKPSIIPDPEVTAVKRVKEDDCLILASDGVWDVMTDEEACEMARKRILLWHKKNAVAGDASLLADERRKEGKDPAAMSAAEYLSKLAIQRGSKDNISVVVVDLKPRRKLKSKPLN
UniProt Q9FIP9: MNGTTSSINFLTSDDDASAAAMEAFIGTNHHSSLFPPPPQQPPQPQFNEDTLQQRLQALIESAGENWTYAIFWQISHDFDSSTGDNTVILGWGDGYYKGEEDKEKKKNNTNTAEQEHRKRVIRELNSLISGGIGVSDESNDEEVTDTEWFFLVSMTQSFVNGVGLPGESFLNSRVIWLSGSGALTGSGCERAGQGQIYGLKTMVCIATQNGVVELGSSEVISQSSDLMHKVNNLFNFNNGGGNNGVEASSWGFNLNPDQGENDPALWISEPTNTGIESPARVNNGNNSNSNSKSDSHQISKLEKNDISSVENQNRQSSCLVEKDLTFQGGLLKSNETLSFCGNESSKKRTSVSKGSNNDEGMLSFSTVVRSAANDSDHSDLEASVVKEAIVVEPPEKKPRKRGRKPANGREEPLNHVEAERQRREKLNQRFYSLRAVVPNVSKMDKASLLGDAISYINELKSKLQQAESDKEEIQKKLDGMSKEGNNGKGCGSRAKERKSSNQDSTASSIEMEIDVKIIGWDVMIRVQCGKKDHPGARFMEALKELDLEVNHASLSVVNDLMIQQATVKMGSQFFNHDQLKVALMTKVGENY

Results are given in words; binding and its absence hold for the method and conditions named. For some assays here: Binding seen in cells or lysates may run through a third protein. Some results given as binding are weak or reduced against the parent protein; the word gives no strength. For some assays here: Sequences can lack the tags named with a protein.

Experiment [1] has as its target T1, Yc-PYL6 (PYL6 in pSPYCE(MR)) (Arabidopsis thaliana) (UniProt Q8S8E3).
T1 sequence: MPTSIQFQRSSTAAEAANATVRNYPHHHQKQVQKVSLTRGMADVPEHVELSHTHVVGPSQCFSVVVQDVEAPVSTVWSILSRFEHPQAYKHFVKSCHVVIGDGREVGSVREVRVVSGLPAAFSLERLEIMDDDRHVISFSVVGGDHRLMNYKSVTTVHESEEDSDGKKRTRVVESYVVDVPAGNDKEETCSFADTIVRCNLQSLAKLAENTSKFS
The experiment in a line: split reporter; BiFC with split YFP in N. benthamiana leaves, 3–5 days after infiltration, confocal microscopy.

For experiment [2], the target named is T2, BD-PYL6 (ABA receptor PYL6/RCAR9 in pGBT9.BS) (Arabidopsis thaliana) (UniProt Q8S8E3).
T2 sequence: T1 sequence
The experiment in a line: two-hybrid; yeast PJ69-4A, drop tests on SD-LWH with 2.5 mM 3-AT, with 10 μM ABA, 30 °C, photos at days 3, 5 and 10.

Experiment [3] concerns the target T2, BD-PYL6 (ABA receptor PYL6/RCAR9 in pGBT9.BS) (Arabidopsis thaliana). The experiment can be described thus: two-hybrid; yeast PJ69-4A, drop tests on SD-LWH with 2.5 mM 3-AT, without ABA, 30 °C, photos at days 3, 5 and 10.
Experiment [4] concerns the target T3, PYL5 (yeast two hybrid construct) (Arabidopsis thaliana) (UniProt Q9FLB1).
T3 sequence: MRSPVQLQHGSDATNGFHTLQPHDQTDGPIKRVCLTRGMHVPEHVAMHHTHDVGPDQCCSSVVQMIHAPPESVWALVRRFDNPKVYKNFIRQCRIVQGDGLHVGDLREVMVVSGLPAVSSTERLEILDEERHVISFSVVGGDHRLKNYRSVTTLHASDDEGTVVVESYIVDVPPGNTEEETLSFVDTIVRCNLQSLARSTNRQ
The experiment in a line: two-hybrid; yeast PJ69-4A, drop tests on SD-LWH with 2.5 mM 3-AT, with 10 μM ABA, 30 °C, photos at days 3, 5 and 10.

For experiment [5], the target named is T3, PYL5 (yeast two hybrid construct) (Arabidopsis thaliana). The experiment in a line: two-hybrid; yeast PJ69-4A, drop tests on SD-LWH with 2.5 mM 3-AT, without ABA, 30 °C, photos at days 3, 5 and 10.
In experiment [6] the target is HF-MYC2 (6xHIS-3XFlag MYC2) (Arabidopsis thaliana) (UniProt Q39204). The experiment can be described thus: co-IP; co-expression in N. benthamiana leaves; extract split and treated with 50 μM ABA or ethanol (mock); anti-Flag M2 magnetic beads against HF-MYC2, 4 °C, 2 hours, elution with 3x FLAG peptide; blot with anti-YFP.

Turning to “Yn-ABI1 (from UniProt P49597 1-434) (enzyme)”, the binding entry in experiment [1] is “binds”.

As to “MYC2 residues 1–373 (from UniProt Q39204 1-373) (domain or fragment)”, the binding result in experiment [2] and in experiment [3] was “no binding” in each case.

“truncated MYC2 (141–623) (from UniProt Q39204 141-623) (domain or fragment)”: the binding entry in experiment [2] and in experiment [3] was “binds” each time.

As for “ABI1 (yeast two hybrid construct) (from UniProt P49597 1-434) (enzyme)”, the binding result in experiment [4], in experiment [2], in experiment [5] and in experiment [3] was “binds” throughout.

As to “MYC3 (yeast two hybrid construct) (from UniProt Q9FIP9 1-592)”, the binding result in experiment [4], in experiment [2], in experiment [5] and in experiment [3] was “no binding” in each case.

B1: Venus-PYL6 (receptor, UniProt Q8S8E3 1-215)
chain: T1 sequence
On to B1, for which, in experiment [6], the binding entry was “binds”.
